Data: the supplement of paper PMC11417369
The other results are listed elsewhere or left out.

system: PfAP2-HC AP2 domain (GST-tagged); experiment: gcPBM binding intensity (ln(normalized median fluorescence intensity)); higher = stronger DNA binding
Outline: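 Binding intensity is defined as the maximum Masliner-normalised natural-log median intensity across replicate spots for either probe orientation. It was measured on an Agilent 4 × 180k array of primer-extended double-stranded 36-bp intergenic genomic probes and negative controls, to which GST-tagged P. falciparum DNA-binding domains made in E. coli were applied for 1 h in 1× PBS with 1% milk, 0.2 mg/ml BSA, 0.5% salmon testes DNA and 0.03% Triton X-100. Detection was by Alexa488 anti-GST antibody and scanning at 488 nm.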

| Sequence | gcPBM binding intensity (ln) |
| --- | --- |
| GAAAAGTATAAAAAACGTACAAGTTTTATTTTCACA [XGTACX_site4604] | 9.58 |
| CCCCTATAAATAGGGTGTACTAATAAATATTTTTAA [XGTACX_site1244] | 9.56 |
| ACGGGCGACACATAAGTGCGCAAAAAAAAAAAAATA [GTGCAC_site9688] | 9.48 |
| TAAAATAAAAAGTTTACACACATATATAACTTTAAT [CACACA_site6456] | 9.76 |
| AAAATACAGAAACACACACACACACCCATATATATA [CACACA_site3559] | 10.7 |
| TTTTATAAAACATGTAGTACATGAAAAAAAAAATTT [XGTACX_site1626] | 9.55 |
| TTATTTTTTGTATGAACACACAACTTAATTATGATG [CACACA_site2448] | 9.98 |
| ATGTTTCTATAGATTTGTACATATTTCATATGAATA [XGTACX_site1053] | 9.7 |
| TCTTTTCTTTTGTGTGTGCACATATAAGCATGAAAC [GTGCAC_site9910] | 9.96 |
| TTTTACAAATATTTCTGTACACATTCTCATATAATT [XGTACX_site1974] | 9.83 |
| TTTTTTAATTAATTACCTTTGAATGTGTATTAGGAC [GTGCAC_negctrl_site651] | 9.37 |
| AAATGACGAAATAAAATCATAAATTAAAATAAATAA [CACACA_negctrl_site655] | 9.65 |
| ATAGCATTTCACAAATGTACATAAAAAAATAAAAAT [XGTACX_site402] | 9.73 |
| TAAAACAAAATGGTAACACACACATATATATATATA [CACACA_site8590] | 10.3 |
| AAATGGAAATTAATATGTACATATTTATAAGTATGA [XGTACX_site1774] | 9.72 |
| TCCTATCATTTATATTTTACTACATAATATTGATAA [GTGCAC_negctrl_site286] | 9.46 |
| ACATCCTATAAATAGAGTACGTAAATTATAATACAC [XGTACX_site5338] | 9.69 |
| TATATATATATATATTGTACAAAGATTAATATATAA [XGTACX_site8433] | 9.69 |
| TATTTTAATAAGAATAAATGAAATGAAATGAAATAT [CACACA_negctrl_site823] | 9.62 |
| ACTTAATTTTTTTATTGTACATGTAAATGAGGGAAA [XGTACX_site6305] | 9.52 |
| CTTCTGGACAGGAATGCACACATTTTTTTTTCTTTT [CACACA_site1807] | 10 |
| GTTTTTATCATATCATGTACGTATTTTATTTTTTTT [XGTACX_site8643] | 9.97 |
| ATCAAAGATAAATTTACACACATATAAATATAAATA [CACACA_site7409] | 9.91 |

| Sequence | gcPBM binding intensity (ln) |
| --- | --- |
| ATGAATTTTTCTCTACAAAAGGATATAATAAAAATA [XGTACX_negctrl_site461] | 9.37 |
| TAGTGTGCCAAATTAGCACACACATATATACATGAA [CACACA_site8910] | 10.1 |
| TTTTCTAATTAATATTGTACATAAATGTATATATAT [XGTACX_site4749] | 9.52 |
| ATATTTTTTAGGGTCACACATACTTATTATATAAAT [CACACA_site4926] | 9.73 |
| AATATTTAACACCTTATACACACTTTCTTCCTTTTT [CACACA_site785] | 10.1 |
| CATATATACTCATACACACACACACCGACACAGACA [CACACA_site5026] | 10.3 |
| ATGATATGGATAAATACACACAATATAATAATGTCT [CACACA_site1433] | 9.89 |
| TATGATGAGATAACAAAAGTTGTACTTTTTTTTTTT [CACACA_negctrl_site1172] | 9.35 |
| AGAAAAAAAATGTATACACACAAATATAAAGAAGGA [CACACA_site3806] | 9.96 |
| AAAATTAATAAATGAGAAAAAAGGATGAATAATGAG [CACACA_negctrl_site1614] | 9.79 |
| TTTATTAATTAAACCATACACACATAATTTTTTTAT [CACACA_site842] | 9.92 |
| AAACGTGCGTATATGTGTACGCATATATATATATAT [XGTACX_site5252] | 9.73 |
| AAAGCACGCAAGAATACACACAAATATTATAAAAAA [CACACA_site6206] | 10.1 |
| ATCCCAGTAATATATAGTACATAACTATAAGAGAAT [XGTACX_site6909] | 9.74 |
| TAAAAAATTATAAAATGTACATAAAAAAAAAAAAAA [XGTACX_site3376] | 9.63 |
| CTGAAGAAACTACAACGTACAAAATATGTATATATT [XGTACX_site3779] | 9.63 |
| AGGAAAACAAAAGATGCATGCTAATTTTCCTCGCGT [TGCATGCA_site627] | 9.53 |
| ATGGAAATAAAAAAAAAAAAAAAAAAAAATATATAT [GTGCAC_negctrl_site67] | 9.52 |
| TAGCCCACATTTAATGGTACAGTGAGTATATATATG [XGTACX_site8044] | 9.57 |
| TACATAAAATACCATGCATGCTAGTAAAAAAAAAAA [TGCATGCA_site650] | 9.66 |
| TAATATATTTATAGAGCATGCAACGTAATATTATTA [TGCATGCA_site863] | 9.67 |
| CAAATAGCTAGCTGTGCACACAAACATATTTTCCAA [CACACA_site879] | 10 |
